In all, about 72,000 compounds went through this assay and about 710 (0.99%) were called active. The inconclusive results got no clear call from the source; some entries with a clear call stand among them for comparison. Calls come from the whole dose curve; as a rule, active = well fitted inhibition curve with a large enough effect; inconclusive = small, poorly fitted or top-dose-only effect; inactive = no such curve, though single readings can be large or run the other way. No potency is given beside an inconclusive call; the fits are too rough.
test: qHTS Assay for Inhibitors of the ERK Signaling Pathway using a Homogeneous Screening Assay; conditions: HEK293-V1b, vasopressin-stimulated pERK AlphaScreen; activity, negative = inhibition: at 57.5 µM (top of the series) unless noted; note: nearly all actives have a fitted effect of over 55% in size
Outline: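 V1b-HEK293 cells; cpd 30 min 37C; 25 nM vasopressin 5 min; lyse 10 min; AlphaScreen beads 5 hr RT. Normalized to DMSO basal and 25 nM vasopressin; AC50 by Hill fit.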
% is set by controls: 0 for no effect and ±100 for the full control effect; potency is the fitted concentration of half-maximal effect; tags give direction and shape of the fitted curve.

Row | Compound | Potency | activity, negative = inhibition
1 | COC(=O)C1CCN(S(=O)(=O)Cc2ccccc2)CC1 | inactive | 
2 | O=C(Cn1nnc(-c2ccccc2NC(=O)c2ccccc2F)n1)NCc1ccco1 | inactive | 
3 | CCn1c(N)c(C(=O)Nc2ccccc2C(=O)OC)sc1=S | inconclusive [inhibitor, partial curve] | 
4 | COC(=O)/C=C/C(C)=C/C=C/C(C)=C/C=C/C=C(C)/C=C/C=C(C)/C=C/C(=O)O | inactive | 
5 | C=CCSc1nc(N)c2c(C)c(C)sc2n1 | inconclusive [inhibitor, full curve] | 
6 | Nn1c(SCc2nc3ccccn3c2Br)nnc1-c1cccnc1 | inconclusive [inhibitor, single point] | 
7 | COC(=O)c1ccccc1NC(=O)CN(C)S(=O)(=O)c1cc(C)ccc1OC | inconclusive [inhibitor, full curve, poor fit] | 
8 | CCOC(=O)C1=C(C)NC(=O)N[C@@H]1c1coc2cc(C)cc(C)c2c1=O |  | inactive: -5.28% [at 11.5 µM]
9 | c1ccc(CN2CCN(c3nc(-c4ccccc4)nc(-n4ccnc4)n3)CC2)cc1 | inactive | 
10 | CCN1C(=O)c2cccc3c(S(=O)(=O)Nc4ncccc4C)ccc1c23 | active: 25.1 µM | 
11 | CC(C)(C)n1ncc2c(=O)n(CC(=O)NCc3ccccc3Cl)cnc21 | inconclusive [inhibitor, full curve, poor fit] | 
12 | Cn1c(SCC(=O)N2CCCC2)nc2ccccc2c1=O | inconclusive [inhibitor, single point] | 
13 | Cc1ccccc1Cn1c(-c2cncs2)nc2ccccc21 | inactive | 
14 | CCOc1ccc(C(=O)Nc2c3c(nn2-c2ccc(F)cc2)CS(=O)C3)cc1 (stereo not given) | inactive | 
15 | CN(CC(=O)Nc1ccc(Cl)cc1)S(=O)(=O)c1cccc2cccnc12 | inconclusive [inhibitor, single point] | 
16 | CCCN(CCC)CCc1cccc2c1CC(=O)N2 | inconclusive [inhibitor, single point] | 
17 | Cc1cnc(CNc2nc(-c3ccc(N(C)C)cc3)nc3ccccc23)cn1 | inactive | 
18 | COc1cccc2[nH]c3c(N4CCCC(C)C4)ncnc3c12 (stereo not given) | inconclusive [inhibitor, partial curve] | 
19 | CCc1nc2ccccc2n(CCOCCOCCn2c(=O)c(CC)nc3ccccc32)c1=O | inconclusive [inhibitor, single point] | 
20 | COc1cccc(Cn2c(=O)cnc3cnc(N4CCN(C)CC4)nc32)c1 | inactive | 
21 | Cc1cc2ncn(C(=O)c3ccc4c(c3)OCO4)c2cc1C | inconclusive [inhibitor, partial curve] | 
22 | Cc1nc2sccn2c1P(c1c(C)nc2sccn12)c1c(C)nc2sccn12 | inactive | 
23 | O=C(Nc1sc2c(c1C(=O)NCc1cccnc1)CCCC2)c1ccco1 | inconclusive [inhibitor, partial curve] | 

Row | Compound | Potency | activity, negative = inhibition
24 | Cc1ccccc1-c1ccc(Nc2ccc(N3CCOCC3)cc2)nn1 | inconclusive [inhibitor, single point] | 
25 | Cc1cc(N2CCCCC2)nc(SCC(=O)c2ccccc2)n1 | inactive | 
26 | Cc1cnc(CNc2ccnc(-c3cccc(C#N)c3)n2)cn1 | inconclusive [inhibitor, single point] | 
27 | Cc1ccc2c(c1)c1cccc3c1n2CCN3CCC(N)=O | inconclusive [inhibitor, single point] | 
28 | Cc1ccc(-c2nn(C)c(=O)c3ccccc23)cc1CNC(=O)CN1CCOCC1 | inconclusive [inhibitor, single point] | 
29 | Cc1c(CNC(=O)c2cnn3c2NC(c2ccc(Br)cc2)CC3C(F)(F)F)cnn1C (stereo not given) | inconclusive [inhibitor, partial curve] | 
30 | COc1nc(-c2ccccc2)cc(-c2ccc(OC)c(OC)c2)n1 | inconclusive [inhibitor, partial curve] | 
31 | O=C(Cn1cnc2ccccc2c1=O)OCC(=O)c1ccc2c(c1)OCCO2 | inconclusive [inhibitor, partial curve] | 
32 | CC[C@H](C)[C@@H]1O[C@]2(CC[C@@H]1C)C[C@H]1C[C@H](CC=C(C)[C@@H](O[C@H]3C[C@H](OC)[C@H](O[C@H]4C[C@H](OC)[C@H](O)[C@H](C)O4)[C@H](C)O3)[C@@H](C)C=CC=C3CO[C@@H]4[C@@H](O)C(C)=C[C@H](C(=O)O1)[C@@]34O)O2 | inactive | 
33 | COC(=O)c1ccc(C2CC(=O)Nc3cc(OC)c(OC)cc32)cc1 (stereo not given) | inconclusive [inhibitor, single point] | 
34 | COc1ccc(C(=O)Nn2c(C)ccc2C)cc1OC | inconclusive [inhibitor, partial curve] | 
35 | Cc1noc(C)c1COc1ccc(C(=O)OCC(=O)c2ccc3c(c2)OCCO3)cc1 | inconclusive [inhibitor, full curve, poor fit] | 
36 | Nn1c(SCC(=O)NC2CCCCC2)nnc1-c1ccccc1 | inactive | 
37 | CC1CCC/C(=C\Nc2ccc(O)cc2)C1=O (stereo not given) | inactive | 
38 | CCCc1cc(=O)oc2cc(C)cc(OCc3nn[nH]n3)c12 | inactive | 
39 | CCOc1ccc(-c2nc(C#N)c(N3CCN(C)CC3)o2)cc1 | inconclusive [inhibitor, partial curve] | 
40 | COc1ccc2c(c1)OC1(C)CC2C(C(=O)c2ccccc2OC)C(=O)N1 (stereo not given) | inconclusive [inhibitor, partial curve, poor fit] | 
41 | CC1=C(/C=C/C(C)=C/C=C/C(C)=C/CO)C(C)(C)CCC1 | inactive | 
42 | CN(C)c1ccc(CN(C(=O)COc2ccc(Br)cc2)C2CCS(=O)(=O)C2)cc1 (stereo not given) | inconclusive [inhibitor, partial curve] | 
43 | COc1ccc(F)cc1S(=O)(=O)n1cc(C)nc1-c1ccccc1 | inactive | 
44 | CC1(C)Cc2nc(N3CCOCC3)c(C#N)cc2CO1 | inconclusive [inhibitor, partial curve, poor fit] | 
45 | NC1=NC(c2cn(-c3ccccc3)nc2-c2cccs2)n2c(nc3ccccc32)N1 (stereo not given) | inconclusive [inhibitor, single point] | 

Source: PubChem BioAssay AID995 (National Center for Advancing Translational Sciences (NCATS), 2007)
